The campaign covered roughly 310,000 compounds. About 14,000 (4.5%) showed an effect of 50% or more. The effect is printed as a negative number. The list shows a part of the results.
Each compound was assayed against human ether-à-go-go-related gene (hERG) potassium channel (human, UniProt Q12809) (assay: primary screen, population patch clamp on CHO cells stably expressing hERG).
human ether-à-go-go-related gene (hERG) potassium channel, sequence (Q12809 whole entry, looked up): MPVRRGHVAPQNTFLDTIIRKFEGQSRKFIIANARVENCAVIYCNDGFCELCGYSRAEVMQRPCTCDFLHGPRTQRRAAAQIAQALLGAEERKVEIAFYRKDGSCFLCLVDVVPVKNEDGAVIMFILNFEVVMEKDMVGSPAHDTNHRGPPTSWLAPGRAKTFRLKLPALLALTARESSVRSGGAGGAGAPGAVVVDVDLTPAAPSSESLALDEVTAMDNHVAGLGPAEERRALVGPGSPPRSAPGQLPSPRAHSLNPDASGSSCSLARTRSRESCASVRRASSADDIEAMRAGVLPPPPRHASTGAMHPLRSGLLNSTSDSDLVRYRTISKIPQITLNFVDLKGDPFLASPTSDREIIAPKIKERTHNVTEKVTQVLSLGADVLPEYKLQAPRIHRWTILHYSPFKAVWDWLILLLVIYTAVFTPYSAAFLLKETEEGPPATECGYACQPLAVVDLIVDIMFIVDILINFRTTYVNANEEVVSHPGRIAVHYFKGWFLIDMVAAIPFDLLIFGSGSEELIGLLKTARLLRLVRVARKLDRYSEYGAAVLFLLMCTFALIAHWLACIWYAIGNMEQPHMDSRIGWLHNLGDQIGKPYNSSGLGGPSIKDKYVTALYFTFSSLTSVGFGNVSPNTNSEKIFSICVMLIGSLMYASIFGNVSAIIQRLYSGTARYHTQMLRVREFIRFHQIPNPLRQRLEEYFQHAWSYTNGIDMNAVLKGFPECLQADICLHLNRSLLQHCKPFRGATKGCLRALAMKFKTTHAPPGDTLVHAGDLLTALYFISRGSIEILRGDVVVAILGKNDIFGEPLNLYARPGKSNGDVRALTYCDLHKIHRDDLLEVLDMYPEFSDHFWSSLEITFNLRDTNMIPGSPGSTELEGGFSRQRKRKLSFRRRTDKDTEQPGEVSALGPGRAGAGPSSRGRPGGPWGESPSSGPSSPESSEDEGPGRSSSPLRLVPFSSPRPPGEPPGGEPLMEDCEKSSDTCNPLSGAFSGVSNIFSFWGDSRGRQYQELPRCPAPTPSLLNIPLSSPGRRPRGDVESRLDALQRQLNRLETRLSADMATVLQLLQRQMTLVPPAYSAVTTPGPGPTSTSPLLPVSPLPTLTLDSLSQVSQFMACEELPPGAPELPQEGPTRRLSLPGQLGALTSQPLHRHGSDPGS
CC(=O)Nc1ccc(Nc2cc(C)c3ccccc3n2)cc1 was tested, and the “hERG current change (%, negative = inhibition) at 10uM” value was -27.4%. COc1cc(OC)cc(C(=O)NC2CCSC2=O)c1 (centres unmarked) was tested, and the “hERG current change (%, negative = inhibition) at 10uM” value was -5.55%. In the case of CCCn1nc(C(=O)N2CCc3ccccc3C2)c2ccccc2c1=O, the “hERG current change (%, negative = inhibition) at 10uM” value is reported as -9.54%. For O=C(NCCc1c[nH]c2ccccc12)C1CCC(Cn2c(=S)[nH]c3ccccc3c2=O)CC1 (centres unmarked), the “hERG current change (%, negative = inhibition) at 10uM” value was -13.9%. Cc1cc2c(c(SCC(=O)NCCc3ccccc3)n1)C(=O)OC2 was tested, and the “hERG current change (%, negative = inhibition) at 10uM” value was -13.8%. With Cc1onc(-c2ccccc2Cl)c1C(=O)Nc1nnc(-c2ccc(F)cc2)s1 the “hERG current change (%, negative = inhibition) at 10uM” value was -14.5%. In the case of O=C(Nc1cccc(Br)c1)c1ccc(OC2CSC2)cc1, the “hERG current change (%, negative = inhibition) at 10uM” value is reported as -6.64%. In the case of O=C(N=Nc1c(O)[nH]c2ccc(F)cc12)C1COc2ccccc2O1 (centres unmarked), the “hERG current change (%, negative = inhibition) at 10uM” value is reported as -2.06%. For COc1cc(C(=O)OCC(=O)NCc2ccc(F)cc2)cc(NC(=O)c2cccs2)c1OC, the “hERG current change (%, negative = inhibition) at 10uM” value was -2%. C/C(=N\NC(=O)C(N)=O)c1ccc(O)cc1O was tested, and the “hERG current change (%, negative = inhibition) at 10uM” value was 17.6%. In the case of CCC(C)(C)NC(=O)CN(C(=O)C(=O)Nc1ccc2c(c1)OCCO2)C(C)(C)CC, the “hERG current change (%, negative = inhibition) at 10uM” value is reported as 1.94%. For CCOC(=O)c1cccc(NC(=O)COc2nsnc2N2CCOCC2)c1, the “hERG current change (%, negative = inhibition) at 10uM” value was -3.49%. For c1ccc(SCc2cn3cccnc3n2)nc1, the “hERG current change (%, negative = inhibition) at 10uM” value was 15.1%. In the case of CC(=O)NCC1CCCN(Cc2cn(-c3ccccc3)nc2-c2ccc3c(c2)OCO3)C1 (centres unmarked), the “hERG current change (%, negative = inhibition) at 10uM” value is reported as -45.9%. For CC(C)(C)OC(=O)N[C@@H](Cc1ccccc1)c1nnc(SCC(=O)O)o1, the “hERG current change (%, negative = inhibition) at 10uM” value was 4.34%. For O=C1N=C(N2CCN(c3ccccc3)CC2)S/C1=C\c1ccco1, the “hERG current change (%, negative = inhibition) at 10uM” value was -66.1%. In the case of CCn1c(SCC(=O)Nc2cc(C)on2)nc2c(c1=O)SC(C)C2 (centres unmarked), the “hERG current change (%, negative = inhibition) at 10uM” value is reported as -4.2%. For C=C(C)C1CC=C(CN2CCN(Cc3ccccc3)CC2)CC1 (centres unmarked), the “hERG current change (%, negative = inhibition) at 10uM” value was 12.1%. N#CCCn1cc(C(=O)Nc2ccc([N+](=O)[O-])cc2)c(-c2ccc3c(c2)OCCO3)n1 was tested, and the “hERG current change (%, negative = inhibition) at 10uM” value was -72.8%. C=CCOC(=O)C1=C[C@@H](c2csc3ccccc23)[C@H](CCCO)[C@@H](OCC)O1 was tested, and the “hERG current change (%, negative = inhibition) at 10uM” value was -27.7%. CC(C)CCNC(=O)COC(=O)c1ccc(Br)o1 was tested, and the “hERG current change (%, negative = inhibition) at 10uM” value was 9.88%. COC(=O)C1=C(c2ccc(OC)c(OC)c2)C[C@@H]2CC[C@H]1N2C(=O)N1CCOCC1 was tested, and the “hERG current change (%, negative = inhibition) at 10uM” value was 10.3%. In the case of CCOC(=O)CC(NC(=O)C(Cc1ccc(N(CCCl)CCCl)cc1)NC(C)=O)C(=O)OCC (centres unmarked), the “hERG current change (%, negative = inhibition) at 10uM” value is reported as 0.137%. In the case of CCOc1ccccc1OCC(=O)Nc1ccc(OC)c(S(=O)(=O)N2CCCCC2)c1, the “hERG current change (%, negative = inhibition) at 10uM” value is reported as -29.7%. In the case of CN(CCNC(=O)c1ccc(/C=N/O)nc1)Cc1ccccc1, the “hERG current change (%, negative = inhibition) at 10uM” value is reported as -29.3%. Cc1cc(C(=O)OCC(=O)NC(=O)NC(C)(C)C)c(C)o1 was tested, and the “hERG current change (%, negative = inhibition) at 10uM” value was -2.39%. In the case of Cc1ccc(C(=O)n2nc(-c3ccco3)nc2N)cc1, the “hERG current change (%, negative = inhibition) at 10uM” value is reported as 1.96%. With CCCCN1C(=O)CC(Sc2ncccc2C(=O)O)C1=O (centres unmarked) the “hERG current change (%, negative = inhibition) at 10uM” value was 13%. O=C(Nc1ccc(-c2noc(CCc3ccccc3)n2)cc1)c1ccco1 was tested, and the “hERG current change (%, negative = inhibition) at 10uM” value was 6.55%. For c1cnc2c(c1)ncc1cscc12, the “hERG current change (%, negative = inhibition) at 10uM” value was -17.5%. CC1CC(=O)Nc2ccc([N+](=O)[O-])cc2N1C (centres unmarked) was tested, and the “hERG current change (%, negative = inhibition) at 10uM” value was 7.59%. c1cncc(C(c2nnnn2C2CCCC2)N2CCN(Cc3ccc4c(c3)OCO4)CC2)c1 (centres unmarked) was tested, and the “hERG current change (%, negative = inhibition) at 10uM” value was -10.8%. With COc1cc(/C=C2\C(=O)NN(c3ccccc3)C2=O)ccc1OCC(N)=O the “hERG current change (%, negative = inhibition) at 10uM” value was 8.39%. COc1ccc(C(=O)NC(=S)Nc2nc(-c3ccc(OC)c(Br)c3)cs2)cc1Br was tested, and the “hERG current change (%, negative = inhibition) at 10uM” value was 23.1%. In the case of O=C(O)CCCC(=O)Nc1cccc(C(=O)Nc2ccccc2C(=O)O)c1, the “hERG current change (%, negative = inhibition) at 10uM” value is reported as 21.5%. With Cc1ccc(NC(=S)NNC(=O)CCn2cc(C)cn2)cc1 the “hERG current change (%, negative = inhibition) at 10uM” value was 14.3%. With CCN(CC)S(=O)(=O)c1ccc(C(=O)OCC(=O)NCCN2C(=O)CSC2=O)cc1 the “hERG current change (%, negative = inhibition) at 10uM” value was -14.4%. Cc1ccc(C(=O)Oc2cc(N)n(S(=O)(=O)c3ccc(C)cc3)n2)cc1 was tested, and the “hERG current change (%, negative = inhibition) at 10uM” value was 9.19%. For COc1ccc2[nH]c3c(=O)n(CCCCC(=O)N4CCCC4)c(=S)[nH]c3c2c1, the “hERG current change (%, negative = inhibition) at 10uM” value was -1.29%. With O=C(/C=C/c1cccs1)NC(=S)Nc1ccccc1 the “hERG current change (%, negative = inhibition) at 10uM” value was 25.2%. For O=C(CCCNS(=O)(=O)c1ccc(Cl)c(Cl)c1)NCCc1ccccn1, the “hERG current change (%, negative = inhibition) at 10uM” value was -16.9%. For Cc1ccc(C(=O)NCCCNC(=O)c2ccco2)cc1C, the “hERG current change (%, negative = inhibition) at 10uM” value was 14.7%. For Cc1cc(-n2cnnn2)ccc1C(C)C, the “hERG current change (%, negative = inhibition) at 10uM” value was -15.8%. Cc1cccc(-n2ccc(=O)c(C(=O)Nc3ccc(S(=O)(=O)Nc4nccs4)cc3)n2)c1 was tested, and the “hERG current change (%, negative = inhibition) at 10uM” value was -18.3%.

Reference: PMC4336329 (PLoS ONE, 2015)
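Further: peak tail current of the secondary pulse compared with the same well before compound.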
